# Measurements reported in PubChem BioAssay (Tox21).
# Several values for one entry are separate records, joined by “and”; a condition that tells them apart may be missing. Equal entries are not always repeated. This list was built around the results that the source calls inconclusive (neither active nor inactive); the mix of calls is not that of the screen. No potency is given beside an inconclusive call; the fits are too rough. The source holds several records for some structures; these can differ, active in one and inactive in another. Activity calls are given as the source filed them. Calls come from the whole dose curve; as a rule, active = well fitted cell-killing curve with a large enough effect in the repeat runs; inconclusive = weak or mixed curves, or effect the other way; inactive = no such curve, though single readings can be large or run the other way.
# Assay: qHTS assay for identifying genotoxic compounds that show differential cytotoxicity against isogenic chicken DT40 cell lines with known DNA damage response pathways - wild type cell line (AID 743012); note: nearly all actives have a fitted effect of over 60% in size
# Details: DT40 wild type chicken cells viability, CellTiter-Glo, 40 h; activity change, negative = cytotoxicity: at 68.4 µM (top of the series) unless noted
# Procedure, shortened: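 Cytotoxicity in repair-proficient parental chicken DT40 cells serves as the comparator for Rad54/Ku70- and Rev3-deficient lines. Cells were exposed to compounds for 40 h at 37 C/5% CO2, and ATP-based luminescence (CellTiter-Glo) measured viability.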
# % is set by controls: 0 for no effect and ±100 for the full control effect; potency is the fitted concentration of half-maximal effect; tags give direction and shape of the fitted curve.
SMILES,Potency,"activity change, negative = cytotoxicity"
C[C@H]1O[C@@H](O[C@H]2[C@@H](O)C[C@H](O[C@H]3[C@@H](O)C[C@H](O[C@H]4CC[C@@]5(C)[C@H](CC[C@@H]6[C@@H]5CC[C@]5(C)[C@@H](C7=CC(=O)OC7)CC[C@]65O)C4)O[C@@H]3C)O[C@@H]2C)C[C@H](O)[C@@H]1O,active: 422 nM and active: 388 nM,–
O=C(O)COc1nc(Cl)c(Cl)cc1Cl,inconclusive [cytotoxic],–
COP(=O)(OC)SCn1c(=O)oc2cc(Cl)cnc21,"inconclusive [cytotoxic, single point]",–
CCC(C)c1ccc(O)cc1 (configuration not stated),"inconclusive [cytotoxic, single point]",–
O=C1C(Cl)=C(Cl)C(=O)c2ccccc21,active: 2.18 µM and active: 486 nM,–
COc1cccc(C(=O)CCN[C@@H](C)[C@H](O)c2ccccc2)c1,active: 6.68 µM,–
COc1cc(OC)c(OC)cc1C=O,inconclusive,–
CN=CNc1ccc(C)cc1C,inactive,–
Clc1ccc(C(c2ccccc2Cl)C(Cl)(Cl)Cl)cc1 (configuration not stated),"inconclusive [cytotoxic, single point]",–
CCOC(=O)COc1cc(-c2nn(C)c(OC(F)F)c2Cl)c(F)cc1Cl,"inconclusive [cytotoxic, single point]",–
O=C/C=C/c1ccccc1,inactive,–
CCCOCC(=Nc1ccc(Cl)cc1C(F)(F)F)n1ccnc1,active: 4.32 µM,–
CC(C)=CCOc1c2occc2cc2ccc(=O)oc12,active: 26.6 µM,–
N#CCCSCCC#N,inactive,–
O=S1OC[C@@H]2[C@H](CO1)[C@]1(Cl)C(Cl)=C(Cl)[C@@]2(Cl)C1(Cl)Cl (some centres not stated),active: 24.3 µM,–
Clc1cc2c(cc1Cl)Oc1cc(Cl)c(Cl)cc1O2,–,inactive: 0.129% [at 0.343 µM]
CN1CCc2cc(Cl)c(O)cc2[C@H]2c3ccccc3CC[C@@H]21,"inconclusive [cytotoxic, partial curve]",–
CCOP(=O)(OCC)Oc1nc(Cl)c(Cl)cc1Cl,"inconclusive [cytotoxic, single point]",–

# Assay: qHTS assay for identifying genotoxic compounds that show differential cytotoxicity against isogenic chicken DT40 cell lines with known DNA damage response pathways - Rev3 mutant cell line (AID 743014); note: nearly all actives have a fitted effect of over 55% in size
# Details: chicken DT40 Rev3-/- viability, CellTiter-Glo, 40 h; activity, negative = cytotoxicity: at 68.4 µM (top of the series)
row,SMILES,Potency
1,O=C(CCCN1CCC2(CC1)C(=O)NCN2c1ccccc1)c1ccc(F)cc1,"inconclusive [cytotoxic, single point]"
2,COP(=O)(OC)SCn1c(=O)oc2cc(Cl)cnc21,"inconclusive [cytotoxic, single point]"
3,CCC(C)c1ccc(O)cc1 (configuration not stated),inactive and active: 61.1 µM
4,C[C@]12CC[C@@H]3c4ccc(OC(=O)N(CCCl)CCCl)cc4CC[C@H]3[C@@H]1CC[C@@H]2O,"inconclusive [rising, partial curve, poor fit]"
5,Clc1ccc(-c2ccc(Cl)c(Cl)c2Cl)c(Cl)c1Cl,inactive
6,COc1cccc(C(=O)CCN[C@@H](C)[C@H](O)c2ccccc2)c1,active: 16.8 µM
7,Clc1ccc(C(Cl)(Cl)Cl)cn1,active: 61.1 µM
8,COc1cc(OC)c(OC)cc1C=O,active: 34.3 µM
9,Cl[C@H]1OCCO[C@@H]1Cl,"inconclusive [cytotoxic, single point]"
10,O=[N+]([O-])c1cccc(O)c1,"inconclusive [cytotoxic, partial curve, poor fit]"
11,C=CCN1C[C@H](C)N([C@H](c2ccc(C(=O)N(CC)CC)cc2)c2cccc(OC)c2)C[C@H]1C,active: 13.3 µM
12,Clc1ccc(C(c2ccccc2Cl)C(Cl)(Cl)Cl)cc1 (configuration not stated),"inconclusive [cytotoxic, single point]"
13,c1ccc2c(c1)[nH]c1cnccc12,"inconclusive [cytotoxic, partial curve, poor fit]"
14,Clc1ccc(C(Cl)(Cl)Cl)c(Cl)c1,inactive
15,CC(C)=CCOc1c2occc2cc2ccc(=O)oc12,"inconclusive [cytotoxic, single point]"
16,N#CC(C#N)=NNc1cccc(Cl)c1,active: 2.73 µM
17,C/C(=N\NC(=O)Nc1cc(F)cc(F)c1)c1ncccc1C(=O)O,inactive
18,CN1CCc2cc(Cl)c(O)cc2[C@H]2c3ccccc3CC[C@@H]21,"inconclusive [cytotoxic, partial curve, poor fit]"
19,CCOP(=O)(OCC)Oc1nc(Cl)c(Cl)cc1Cl,inconclusive [cytotoxic]
